Assay results: publication PMC12136788
The list shows a part of the results.

T1: UNK ZnF1-3 (human, UniProt Q9C0B0 31-174)
T1 sequence: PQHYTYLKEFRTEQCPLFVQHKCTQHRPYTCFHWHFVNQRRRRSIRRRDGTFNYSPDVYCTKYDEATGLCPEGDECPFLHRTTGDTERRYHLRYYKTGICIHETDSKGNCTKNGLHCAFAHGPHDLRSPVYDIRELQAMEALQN

B1: chrX:71099370:71099371:-_ENSMUSG00000031391_ENSMUST00000102871|mus_mus|motif|central (ssRNA)
RNA: GGGAGUUCUACAGUCCGACGAUCUUUAUUUUUCGUGGAGUAGGGUCAUCAAAGCUAACUGCUAUAAAAUGGAGAAACCACCGGGAGACUCAGACAUCUGCCUACACACUAGUGGCAUAUGGGGAAAGGGCAACGGCACAAACUCAACAGAGGAUUGAGCAUCA
B2: chr15:44268054:44268055:+_ENSMUSG00000022338_ENSMUST00000060652|mus_hu|motif|central (ssRNA)
RNA: GGGAGUUCUACAGUCCGACGAUCUCCAGUUAGUGAGGCAGAGGGCCCUGGAGGGAGCCCUAGGAAACACCAUUAUCGGCAAGUCCCAGACAGCAAAAGGUACUCCACAAGAAACAGAAGGAACUUCCAGUGGUAGCAAAAGCACAACAGAGGAUUGAGCAUCA
B3: chr7:65705844:65705845:+_ENSG00000169902_ENST00000304842|hu_mus|hu_hu_hu_mus_False|68_68 (ssRNA)
RNA: GGGAGUUCUACAGUCCGACGAUCAAACGGAUCUUUGUUACAUAAAUAAGGUGCCGGCUCCCCAUGUUUAACGAUAACCUCCAGAAGGAAGGCUUGCAUGGCAGAAUCUAGCACUUCAUCUGUGACACCCGCCUCAUCCAAGCGCAACAGAGGAUUGAGCAUCA
B4: chr2:126738436:126738437:-_ENSMUSG00000027366_ENSMUST00000028844|mus_mus|motif|central (ssRNA)
RNA: GGGAGUUCUACAGUCCGACGAUCAGGCACGGAGCAUACACUCAUGACUGAGUAACCCAUCAGUUUUGGCACCCUGAUAACGGCUGGCAACUUUUCAGCAUUCUCGAAAGGCCCAGCAGCAAGUUCCACCAUGAUGCUCUCACCCAACAGAGGAUUGAGCAUCA
B5: 100204466_100206563_1624_CDS_ENSG00000125304_ENST00000376387|human|control|control (ssRNA)
RNA: GGGAGUUCUACAGUCCGACGAUCAAUGGCAUUCUUCUUAAAACCAAAGUAUGCACCAAUAAACGUCAGAGGCACAGAUAUGCAGAACCAAAGGGCCAAUAUGGCAACCAGUGUCCCAAAAGGAAUAGCUGCUGAAGAUCCUUCCAACAGAGGAUUGAGCAUCA
B6: chr2:27535424:27535425:-_ENSG00000115204_ENST00000380044|hu_hu|FALSE|FALSE (ssRNA)
RNA: GGGAGUUCUACAGUCCGACGAUCUUUGGCCCAGUUGUCCUGGGCUGACAGUCCAUUAAGUGCCCCUACCAGUGGGAGAAAGCAGCCUAGAAAACACGGGGCAAAGCCCCCCUGAUCCAACAACAUCUUCUUCAGUGCAUCCACCAACAGAGGAUUGAGCAUCA
B7: chr1:52766434:52766435:-_ENSMUSG00000041439_ENSMUST00000156876|mus_hu|FALSE|FALSE (ssRNA)
RNA: GGGAGUUCUACAGUCCGACGAUCGACCUUGGAAAUUAGAAGAUCGUUGUUUAUCUUAACACAAUGUUUCUCUAUCCAGUCUAUUUCCUCCUCAGGAAUAGCAGAUGUUUCUGUGGAGGAAGGUGUUUCAUUCGAAGGUGGUUCCAACAGAGGAUUGAGCAUCA
B8: chr17:74721675:74721676:-_ENSG00000070495_ENST00000397625|hu_mus|FALSE|FALSE (ssRNA)
RNA: GGGAGUUCUACAGUCCGACGAUCGUCUUCCAAAAGUUUCCUUCUUUUGGGGUGUUCGCCAUAGCUGCUAUCGAAGAUGUAAAGGGGACUGUCAUCGCGGGUGCUCUCCAUGUACUCGAUGUAGUACUUCAUCUUCAUCUUAACCAACAGAGGAUUGAGCAUCA
B9: chr9:139297273:139297274:-_ENSG00000165689_ENST00000371725|hu_hu|FALSE|FALSE (ssRNA)
RNA: GGGAGUUCUACAGUCCGACGAUCAACACCCAGGGGUCCUCAAGAGUCUUCCUCCUCGUCUUUAACUUCAGAAAUUCUGUCUAUAGAUUUAAGGAUUUCGGCAACAAGAUUCAGUGUCUCAGCUCCGGAAACCAGUUGCUUGAUCAACAGAGGAUUGAGCAUCA
B10: chr12:48362563:48362564:+_ENSG00000134291_ENST00000256686|hu_hu|hu_hu_hu_mus_False|8_78 (ssRNA)
RNA: GGGAGUUCUACAGUCCGACGAUCUCCGUCAAGCCCUUCGAUAGACCCUUGCGGGGGUGGUAAAAACCACUUUGUAUGGGGAAGGAAAAGAAACGCCAAAAACUUUCCAAAAAGCGGGGGUGGGGUGUCCCAGGCCUGGGAGGUCAACAGAGGAUUGAGCAUCA
B11: chr12:109046171:109046172:-_ENSG00000110880_ENST00000261401|hu_hu|FALSE|FALSE (ssRNA)
RNA: GGGAGUUCUACAGUCCGACGAUCCUUGCUGCUGAAUGUGUUGAGGUAGUGGACGUACGGGGAUUCAUCCGUGAUCUCAAAAUAGCGAAUACUGCUGUCACCCUUUCCACAUAAGUAAAUGAUGCUGGUGUCAGGGUCAUAGAACAACAGAGGAUUGAGCAUCA
B12: 66026368_66029666_3773_CDS_ENSMUSG00000034848_ENSMUST00000102718|mouse|control|control (ssRNA)
RNA: GGGAGUUCUACAGUCCGACGAUCGGCCGCAUCUGUGUAUGCUUGCUCUUUCUCCAUAAUGUACCCCAUAUAUUCAUAAGCUUUGCAGCAGGACCGGUUAUGGCAGAGACACCGCUUUAGUAAUUCCUCUGCCAUGUCAUAUUUCAACAGAGGAUUGAGCAUCA
B13: chr3:41281661:41281662:+_ENSG00000168036_ENST00000349496|hu_hu|motif|central (ssRNA)
RNA: GGGAGUUCUACAGUCCGACGAUCCCUGCUUAUUUUAAGCAUAUUAAAAAGGAAACUAAUUGGACCAUUUUCUAUUUGUCGGUUUUAUACAAAAAGGCUACACAAUUGUUACACUUUAUUCAGAUUACAAUUAAUUAGAGUGAUCAACAGAGGAUUGAGCAUCA
B14: chr11:93807532:93807533:+_ENSMUSG00000059474_ENSMUST00000107854|mus_hu|motif|central (ssRNA)
RNA: GGGAGUUCUACAGUCCGACGAUCCAGUACAUUUUGAACCGUAAAAGAGAAUGGGGCGAUUGAGUUGUACAACUGGAGUUAUGGCGGAGACAUAAAUCUCCUCUGCAUUAAUUAUUUUUCGGUUCGUCGGCAGUAGGAGUUAGUCAACAGAGGAUUGAGCAUCA

Target: T1, UNK ZnF1-3
Test: nsRBNS (natural sequence RNA bind-n-seq); RBNS binding buffer (assumed for nsRBNS): 25 mM Tris pH 7.5, 150 mM KCl, 3 mM MgCl2, 0.01% Triton X-100, 500 ug/ml BSA, 20 U/ml SUPERase-In, 4 C; UNK is unkempt and MSI1 is Musashi-1; names of the RNAs are library labels; protein concentration not given here; high values mean tight binding

Binder | binding signal
B1 | 1.81 enrichment R
B2 | 1.7 enrichment R
B3 | 0.365 enrichment R
B4 | 1.21 enrichment R
B5 | 1.2 enrichment R
B6 | 1.19 enrichment R
B7 | 0.48 enrichment R
B8 | 0.681 enrichment R
B9 | 1.24 enrichment R
B10 | 1.75 enrichment R
B11 | 1.17 enrichment R
B12 | 0.704 enrichment R
B13 | 0.975 enrichment R
B14 | 1.08 enrichment R
